Assay results reported in paper PMC4336329 (PLoS ONE, 2015).
About 14,000 (4.5%) of roughly 310,000 compounds showed an effect of 50% or more. The effect is printed as a negative number. Some of the results follow.

target: human ether-à-go-go-related gene (hERG) potassium channel (human, UniProt Q12809); experiment: primary screen, population patch clamp on CHO cells stably expressing hERG
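Note: peak tail current of the secondary pulse compared with the same well before compound.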

Sequence of human ether-à-go-go-related gene (hERG) potassium channel (Q12809 whole entry, looked up): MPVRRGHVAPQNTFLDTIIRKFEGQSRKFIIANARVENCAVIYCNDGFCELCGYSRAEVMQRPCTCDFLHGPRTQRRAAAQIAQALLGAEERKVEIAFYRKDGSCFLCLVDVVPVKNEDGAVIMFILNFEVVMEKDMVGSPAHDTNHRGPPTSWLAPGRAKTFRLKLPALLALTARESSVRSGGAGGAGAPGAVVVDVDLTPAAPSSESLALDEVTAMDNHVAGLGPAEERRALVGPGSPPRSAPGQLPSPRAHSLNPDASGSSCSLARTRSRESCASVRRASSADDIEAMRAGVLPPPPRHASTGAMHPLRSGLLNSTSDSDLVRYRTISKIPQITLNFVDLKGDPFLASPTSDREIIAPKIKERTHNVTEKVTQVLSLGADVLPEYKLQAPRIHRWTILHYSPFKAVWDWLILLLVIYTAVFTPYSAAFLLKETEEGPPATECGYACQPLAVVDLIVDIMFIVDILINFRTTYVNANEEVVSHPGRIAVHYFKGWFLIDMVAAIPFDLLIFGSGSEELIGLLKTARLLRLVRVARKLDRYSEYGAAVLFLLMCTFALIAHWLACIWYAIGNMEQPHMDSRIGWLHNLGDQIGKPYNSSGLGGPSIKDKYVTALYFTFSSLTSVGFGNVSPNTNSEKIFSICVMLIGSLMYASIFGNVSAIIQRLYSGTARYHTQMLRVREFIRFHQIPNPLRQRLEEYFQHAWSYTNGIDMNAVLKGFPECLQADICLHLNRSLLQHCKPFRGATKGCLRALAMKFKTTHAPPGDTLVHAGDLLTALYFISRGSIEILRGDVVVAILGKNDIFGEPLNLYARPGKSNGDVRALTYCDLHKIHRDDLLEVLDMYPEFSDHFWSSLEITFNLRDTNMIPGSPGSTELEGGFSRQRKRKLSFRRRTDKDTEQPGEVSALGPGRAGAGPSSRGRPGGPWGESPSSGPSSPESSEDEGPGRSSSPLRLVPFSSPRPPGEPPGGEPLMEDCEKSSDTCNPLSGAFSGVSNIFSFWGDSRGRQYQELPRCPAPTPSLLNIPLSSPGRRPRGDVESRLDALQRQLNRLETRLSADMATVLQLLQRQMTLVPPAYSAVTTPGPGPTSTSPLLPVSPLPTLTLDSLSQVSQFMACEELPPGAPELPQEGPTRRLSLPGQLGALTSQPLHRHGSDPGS

| SMILES | hERG current change (%, negative = inhibition) at 10uM [%] |
| --- | --- |
| COc1nccnc1NS(=O)(=O)c1ccc(NS(=O)(=O)c2ccc(NC(C)=O)cc2)cc1 | 1.66 |
| Cc1cc(N2CCOCC2)nc2ccc(NC(=S)N3CCCCC3C)cc12 (stereo not shown) | -48.8 |
| CC(=O)c1ccccc1Oc1ncnc(N)c1[N+](=O)[O-] | 35.5 |
| CCOc1ccc(CCNC(=O)Cn2nc(C)n3cccc3c2=O)cc1OCC | 25 |
| COc1ccc(NS(=O)(=O)c2ccc(O)c(NC(=O)c3cc4c(C)nn(-c5ccc(F)cc5)c4s3)c2)cc1 | 11.4 |
| CCC/C(O)=C1\C(=O)CC(C)(C)CC1=NCCO | 7.94 |
| c1csc(-c2nn3c(C4COc5ccccc5O4)nnc3s2)c1 (stereo not shown) | 8.98 |
| O=C(NCC1CCCCC1)c1cc(S(=O)(=O)N2CCCCC2)ccc1N1CCOCC1 | -7.89 |
| O=C(CNS(=O)(=O)c1ccc(Br)s1)NCc1ccc2c(c1)OCO2 | -19.3 |
| COc1cccc(-c2c(C(=O)N/N=C/c3cccs3)nnn2-c2nonc2N)c1 | 9.1 |
| C/C(Cl)=C\CSc1nnc2n(N)c(=O)c3ccccc3n12 | -40 |
| O=[N+]([O-])c1cc(-n2cnnn2)ccc1N1CCC(Cc2ccccc2)CC1 | -54.9 |
| Cc1[nH]n(-c2cccc(Cl)c2)c(=O)c1/C=N/n1c(C)nc2ccccc2c1=O | 9.12 |
| CCNC(=S)NNC(=O)c1cc(-c2ccccc2C)nc2ccccc12 | 18.3 |
| COc1ccc(C2CC(=O)N(CC(=O)NCC3CCCO3)c3ccccc3S2)cc1OC (stereo not shown) | -11.9 |
| Cn1cccc1-c1cc(C(=O)N2CCc3c([nH]c4ccccc34)C2c2ccccn2)[nH]n1 (stereo not shown) | 17.9 |
| COc1ccc(NC(NC(=O)c2cccnc2)C(Cl)(Cl)Cl)cc1 (stereo not shown) | 29.3 |
| CC(OC(=O)c1nc(Cl)ccc1Cl)C(=O)Nc1ccc2c(c1)OCCO2 (stereo not shown) | 8.99 |
| O=Cc1c[nH]c2ncccc12 | 7.02 |
| COc1ccc(C2N(c3ccc(Cl)cc3)N=C(C(C)=O)N(C)N2C(C)=O)cc1 (stereo not shown) | 6.85 |
| S=c1[nH]nc(-c2ccccn2)n1/N=C/c1ccc(Cl)c(Cl)c1 | 21.7 |
| CCN1CCN(C(=O)c2ccccc2N(Cc2ccccc2)S(C)(=O)=O)CC1 | -8.25 |

| SMILES | hERG current change (%, negative = inhibition) at 10uM [%] |
| --- | --- |
| C[C@@H](NC(=O)c1nc[nH]c1C(=O)OCc1ccccc1)c1ccccc1 | 5.6 |
| CC(C)C(c1nnnn1Cc1ccc(F)cc1)N1CCN(c2ccc(O)cc2)CC1 (stereo not shown) | -11.8 |
| CCCCc1n[nH]c(=S)n1Cc1ccccc1 | -30.1 |
| CC(C)=CC(=O)Nc1ccccc1C(N)=O | 12.9 |
| Cc1nc(SCC(=O)NCc2ccco2)c2c(C)c(C)sc2n1 | -2.85 |
| Cc1ccc(S(=O)(=O)N2CCOCC2)cc1C(=O)Nc1nc(-c2cccnc2)cs1 | 13.3 |
| CCc1ccc(-c2ccc(SCC(=O)NCC3CCCO3)nn2)cc1 (stereo not shown) | -8.17 |
| CCOc1ccc(/C(O)=C2\C(=O)C(=O)N(c3cc(C)on3)C2c2ccccc2OC)cc1 (stereo not shown) | 5.46 |
| COCCCNc1ncnc2c1sc1nc(-c3ccco3)c3c(c12)CC(C)(C)OC3 | -1.11 |
| O=C(CNc1cccc2ccccc12)N/N=C/c1ccccn1 | -11.2 |
| O=c1[nH][nH]cc1C=Nc1ccc(Cl)cc1Cl | 20.6 |
| COc1ccc(NC(=O)c2coc(C)c2)cc1 | 8.01 |
| CC(C)(C)c1ccc(NC(=O)COC(=O)c2ccc(NS(=O)(=O)c3ccc(F)c(F)c3)cc2)cc1 | 15.7 |
| COc1ccc(/C=C/C(=O)N2CCCc3ccccc32)c(OC)c1 | 8.22 |
| COC(=O)C1CCN(Cc2cn(-c3ccccc3)nc2-c2ccc3c(c2)OCO3)CC1 | -33.7 |
| COc1ccc(CCNC(=O)CSc2nnc(NC(C)=O)s2)cc1OC | 7.1 |
| O=C(O)C1CC(=O)N(Cc2ccccc2)C1 (stereo not shown) | 19.9 |
| CN(c1ccc(C(=O)Nc2nccs2)cc1)S(=O)(=O)c1ccccc1 | -19.9 |
| COCCC1CCCCN1C(=O)c1cc(COc2ccc(-n3cncn3)cc2)on1 (stereo not shown) | -43.6 |
| CC(C)Cn1cc(C(=O)N2CCN(c3ccccn3)CC2)c2c3ccccc3n(C)c2c1=O | -29.2 |
| Cc1cc(NC(=O)/C=C/c2ccccc2)c(C(C)C)cc1O | 10.7 |
